# In PubChem BioAssay AID2147 (National Center for Advancing Translational Sciences (NCATS), 2009):
# The whole screen tested about 230,000 compounds, of which about 3,600 (1.6%) were called active. This list was built around the results that the source calls inconclusive (neither active nor inactive); the mix of calls is not that of the screen. The call rests on the fitted dose curve; in most records, active means well fitted inhibition curve with a large enough effect (not every such curve was filed as active); inconclusive means small, poorly fitted or top-dose-only effect, or another doubt; inactive means no such curve, though single readings can be large or run the other way. Potencies beside an inconclusive call are fits to weak or partial responses and may not hold up.
# Target: Lysine-specific demethylase 4E (Homo sapiens) (UniProt B2RXH2)
# Chain of UniProt B2RXH2 (B2RXH2 whole entry, looked up, the tested form may be a part): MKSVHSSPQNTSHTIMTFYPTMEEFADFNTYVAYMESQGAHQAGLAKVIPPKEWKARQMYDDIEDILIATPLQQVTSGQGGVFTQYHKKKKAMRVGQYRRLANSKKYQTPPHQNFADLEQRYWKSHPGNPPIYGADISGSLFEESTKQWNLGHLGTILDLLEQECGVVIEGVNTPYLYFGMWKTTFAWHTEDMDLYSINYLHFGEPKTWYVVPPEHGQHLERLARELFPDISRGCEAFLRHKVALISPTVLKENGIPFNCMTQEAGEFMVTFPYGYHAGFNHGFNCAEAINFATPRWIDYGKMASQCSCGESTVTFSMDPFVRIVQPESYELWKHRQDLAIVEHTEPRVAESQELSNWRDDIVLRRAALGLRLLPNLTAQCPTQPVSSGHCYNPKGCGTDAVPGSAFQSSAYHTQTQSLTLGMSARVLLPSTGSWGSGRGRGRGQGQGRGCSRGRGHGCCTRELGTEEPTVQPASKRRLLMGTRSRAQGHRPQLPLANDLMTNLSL
# Assay: qHTS Assay for Inhibitors of Human Jumonji Domain Containing 2E (JMJD2E)
# Settings: JMJD2E catalytic domain, FDH-coupled NADH fluorescence (FDH is formaldehyde dehydrogenase); series mostly up to 57.1 µM
# Further: nearly all actives have a fitted effect of over 50% in size.
# Potency means the concentration at half of the fitted maximal effect; tags describe the fitted curve by direction and shape.
row,SMILES,Potency
1,C(=C\c1cccc2ccccc12)/c1nnc(-c2cccs2)o1,"inconclusive: 31.6 µM [inhibitor, partial curve]"
2,O=C(Nc1ccccc1)c1cccc(S(=O)(=O)N2CCCCC2)c1,inactive
3,COC(=O)N/N=C/c1cc(OC)c(O)c([N+](=O)[O-])c1,inactive
4,O=C1CC(c2cccs2)CC2=C1C(c1ccccc1)n1ncnc1N2 (stereo not drawn),inactive
5,Cc1ccc(-c2c(C)sc3ncn(CC(=O)N4CCOCC4)c(=O)c23)cc1C,inactive
6,COC(=O)c1ccccc1NC(=O)Cn1nc2n(C)c3ccccc3n2c(=O)c1=O,inactive
7,O=[N+]([O-])c1ccccc1/C=C/C=N/n1c(-c2cc(-c3ccccc3)n[nH]2)n[nH]c1=S,inactive
8,CN1/C(=C\C(=O)COC(=O)CNC(=O)c2ccc3ccccc3c2)C(C)(C)c2ccccc21,"inconclusive: 31.6 µM [inhibitor, single point]"
9,Cc1nc([N+](=O)[O-])c(Sc2nc3ccccc3n2C)n1Cc1ccccc1,inactive
10,c1ccc(N/N=C2\CCCc3ccccc32)nc1,inactive
11,O=C(NC1CCCCC1)C(c1ccc(F)cc1)N(Cc1ccco1)C(=O)CN1C(=O)c2ccccc2S1(=O)=O (stereo not drawn),inactive
12,COc1ccc(-c2cc(C3CCN(c4ccc(C(C)=O)cc4[N+](=O)[O-])CC3)[nH]n2)cc1,inactive
13,CC[n+]1c(C)sc2cc(C)ccc21,"inconclusive: 0.0447 µM [inhibitor, full curve, poor fit]"
14,CCOC(=O)Nc1ccc2nc3n(c(=O)c2c1)CCCCC3,"inconclusive: 39.8 µM [inhibitor, single point]"
15,CCc1cc(=O)oc2cc3occ(-c4ccc(OC)c(F)c4)c3cc12,"inconclusive: 39.8 µM [inhibitor, single point]"
16,O=c1cc(C(F)(F)F)[nH]c2ccc(OC(F)(F)F)cc12,"inconclusive: 25.1 µM [inhibitor, partial curve]"
17,O=C(c1ccc(CS(=O)(=O)c2ccc(Br)cc2)o1)N1CCN(c2ncccn2)CC1,"inconclusive: 39.8 µM [inhibitor, single point]"
18,COc1ccc(C2C(C#N)=C(N)N(c3sc4c(c3C#N)CCCC4)C3=C2C(=O)CC(C)(C)C3)cc1 (stereo not drawn),"inconclusive: 35.5 µM [inhibitor, single point]"
19,CCc1nc2oc(C(=O)c3ccccc3)c(N)c2c2c1COC(C)(C)C2,"inconclusive: 39.8 µM [inhibitor, single point]"
20,O=C1CC(=O)N(Cc2ccco2)C(=O)N1,inactive
21,Cc1cccn2c(=O)c3cc(C(=O)N(C)C)n(C)c3nc12,"inconclusive: 28.2 µM [inhibitor, partial curve]"
22,Cn1c2ccccc2c2cc([N+](=O)[O-])ccc21,inactive
23,CCc1cc2c(=O)c(-c3nc4ccccc4[nH]3)coc2c(CN2CCCCC2C)c1O (stereo not drawn),inactive
24,COc1cccc(C(=O)Nc2ccc3nc(N4CCN(c5ncccn5)CC4)cc(C)c3c2)c1OC,"inconclusive: 31.6 µM [inhibitor, partial curve]"
25,Cc1nc(N)nc2c1CCCC2,"inconclusive: 22.4 µM [inhibitor, partial curve, poor fit]"

row,SMILES,Potency
1,CC1NC2(C(=O)N(Cc3ccccc3)c3ccccc32)C2C(=O)N(c3ccccc3)C(=O)C12 (stereo not drawn),inactive
2,S=C(Nc1ccccc1)Nc1ccc(Cl)cc1Cl,inactive
3,CCCn1c(-c2ccc(F)cc2)nc2c(NCC3CCN(C)CC3)nc(C)nc21,"inconclusive: 35.5 µM [inhibitor, partial curve]"
4,C[C@@H]1C[C@@H]2OC(=O)[C@]3(C)[C@H]2[C@@H](OC3(C)O)[C@]2(C)C(=O)C=C[C@H]12 (stereo partly drawn),inactive
5,O=C(N/N=C/c1ccccn1)c1cc(-c2ccccc2Cl)n[nH]1,"inconclusive: 31.6 µM [inhibitor, single point]"
6,COc1ccc(/C=C/C(=O)NC2=NCCS2)cc1OC,"inconclusive: 25.1 µM [inhibitor, partial curve]"
7,COc1ccc(S(=O)(=O)Nc2ccc3c(c2)COC3=O)cc1OC,inactive
8,CCCOc1cccc(C(=O)NC(=S)Nc2ccccc2)c1,inactive
9,N#Cc1nc(-c2ccc(OCc3ccccc3)cc2)oc1NCCN1CCOCC1,"inconclusive: 31.6 µM [inhibitor, partial curve]"
10,COc1ccc(CNc2oc(-c3cccc4ccccc34)nc2C#N)cc1,"inconclusive: 25.1 µM [inhibitor, partial curve]"
11,CCn1c(COc2ccc(Cl)cc2)nnc1SCc1ccc(C#N)cc1,inactive
12,CCOC(=O)c1ccc(NC(=S)N2CCSC2c2ccc(OC)cc2)cc1 (stereo not drawn),inactive
13,O=C(O)c1csc(-c2cccs2)n1,"inconclusive: 28.2 µM [inhibitor, single point]"
14,Cc1cc(C)cc(-n2c(C)cc(/C=C3\C(=N)N4N=C(CC(C)C)SC4=NC3=O)c2C)c1,"inconclusive: 28.2 µM [inhibitor, single point]"
15,CCc1ccc2[nH]c(=O)c(CN(Cc3ccc(F)cc3)C(c3nnnn3CCN3CCOCC3)C(C)C)cc2c1 (stereo not drawn),"inconclusive: 28.2 µM [inhibitor, partial curve]"
16,CC(=O)c1c(C)[nH]c(C(=O)CSc2nnc(-c3cccs3)n2Cc2ccccc2)c1C,inactive
17,Cc1ccc(NC(=O)CCC(=O)OCC(=O)c2ccc(Oc3ccc([N+](=O)[O-])cc3)cc2)cc1,inactive
18,O=C(N/N=C/c1ccc(OCc2ccccc2)cc1)c1cccs1,"inconclusive: 7.08 µM [inhibitor, full curve]"
19,COc1cc(NC(=O)Cn2nnc(-c3ccncc3)n2)cc(OC)c1,"inconclusive: 39.8 µM [inhibitor, single point]"
20,COc1ccc(S(=O)(=O)NCCSCc2cccs2)cc1,inactive
21,Cc1onc(-c2ccccc2)c1C(=O)NC(=S)NNC(=O)c1cc(-c2ccc(F)cc2)n[nH]1,active: 12.6 µM
22,CN1CCN(C=Nc2nc3ccccc3nc2N2CCCC2)CC1,"inconclusive: 14.1 µM [inhibitor, partial curve]"
23,C=CCn1c(SCC(=O)NC2CCCC2)nc2scc(-c3ccco3)c2c1=O,"inconclusive: 14.1 µM [inhibitor, partial curve]"
24,CCOC(=O)c1c(NC(=O)CC2Nc3cc(C)c(C)cc3NC2=O)sc(C)c1C (stereo not drawn),"inconclusive: 20 µM [inhibitor, single point]"
25,CC[C@H](C)[C@@H]1NC(=O)c2cc([N+](=O)[O-])cc(I)c2NCC[C@@H](C(N)=O)NC(=O)[C@H](CCCN=C(N)N)NC1=O,inactive

row,SMILES,Potency
1,Cc1cc(C)cc(N(CC(=O)NCc2ccco2)C(=O)CCC(=O)Nc2nccs2)c1,inactive
2,CCC/C=N/NC(=O)c1cc(Br)ccc1O,inactive
3,COc1ccc(-c2nc3ccccc3n2Cc2ccc(C)cc2)cc1,"inconclusive: 31.6 µM [inhibitor, single point]"
4,CCCCCn1c(N)c(-c2nc3ccccc3o2)c2c([N+](=O)[O-])nn(C)c(=O)c21,"inconclusive: 39.8 µM [inhibitor, single point]"
5,CCc1nnc(NC(=O)c2ccc(-c3ccc([N+](=O)[O-])cc3Cl)o2)s1,inactive
6,C#CCOCCOCCOCCNc1nc(N2CCOCC2)nc(N2CCN(C(=O)[C@H]([C@@H](C)CC)n3cc([C@@H](N)Cc4ccc(O)cc4)nn3)CC2)n1,inactive
7,NC(=O)C1CCN(c2ccc(C(F)(F)F)cn2)CC1,"inconclusive: 39.8 µM [inhibitor, single point]"
8,CCn1c(C)c(CS(=O)(=O)c2ccccc2)[nH]c1=O,active: 28.2 µM
9,CN(C)c1cccc(C(=O)NCc2ccc(Cl)cc2)c1,"inconclusive: 31.6 µM [inhibitor, single point]"
10,COc1ccc(-c2cc(-c3c(O)c(OC)c4occc4c3OC)[nH]n2)cc1OC,"inconclusive: 35.5 µM [inhibitor, single point]"
11,COCCNCc1nc2sc(C)c(-c3ccccc3)c2c(=O)[nH]1,inactive
12,OCCCc1n[nH]c(=S)n1-c1ccccc1,"inconclusive: 35.5 µM [inhibitor, single point]"
13,CCCCCCCCC(=O)NNC(=O)c1c(O)c2ccccc2n(CCC)c1=O,"inconclusive: 35.5 µM [inhibitor, single point]"
14,O=C(O)COc1ccccc1/C=N/NC(=O)/C(=C\c1ccc2c(c1)OCO2)NC(=O)c1ccccc1,"inconclusive: 39.8 µM [inhibitor, single point]"
15,Cc1nc2ccccc2nc1OCC(=O)Nc1ccccc1,"inconclusive: 22.4 µM [inhibitor, single point]"
16,CCOc1ccccc1NC(=O)C(OC(=O)c1ccccc1NS(=O)(=O)c1cccs1)c1ccccc1 (stereo not drawn),"inconclusive: 28.2 µM [inhibitor, single point]"
17,COC(=O)C(CCCCNC(=O)c1ccc([N+](=O)[O-])cc1)NC(=O)c1ccc([N+](=O)[O-])cc1 (stereo not drawn),inactive
18,O=C(CC1C(=O)NCCN1Cc1cccc(Oc2ccccc2)c1)NCCn1cccn1 (stereo not drawn),"inconclusive: 39.8 µM [inhibitor, single point]"
19,C=CCOc1c(Br)cc(CNc2ccc3[nH]c(=O)[nH]c3c2)cc1OCC,inactive
20,COc1ccc(/C=C2/NC(=O)N(CC(=O)Nc3cccc(C)c3)C2=O)cc1O,"inconclusive: 31.6 µM [inhibitor, partial curve]"
21,Cc1cc(O)c(C(=O)c2ccccc2C(=O)O)cc1C,inactive
22,O=C(CN1CCN(Cc2ccc3c(c2)OCO3)CC1)N1CCc2[nH]c3ccc(F)cc3c2C1,inactive
23,Cc1ccccc1Nc1c(-c2cccnc2)nc2cccc(C)n12,"inconclusive: 28.2 µM [inhibitor, single point]"
